Laboratory results: the supplement of paper PMC11060735
“And” between values parts separate entries of the source, which are not always exact repeats. Identical values can stand only once. Counter-ions that a name gives are not always drawn. About 50 (3%) of roughly 1,800 compounds showed activity. The list shows a part of the results.

Test system: mouse p16Ink4a+/- lung fibroblasts (INKBRITE, bleomycin-injured)
Assay: percentage of GFP+ (p16Ink4a+) fibroblasts among all cells in well; higher = less depletion of p16Ink4a+ cells, active = 20 or less
Conditions: 1 µM; 3 days
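Note: fibroblasts sorted 14 days after bleomycin, GFP+ and GFP− mixed 1:1 in 384-well plates (GFP− as in-well control), imaged after Hoechst and NucView530 staining, reference wells lacked compound.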

SMILES | percentage of GFP+
O=C(O)CSCC(=O)NC1CCSC1=O (stereo unspecified) [Erdosteine] | inactive: 35.4%
O=C1c2ccccc2C(=O)c2c1ccc(O)c2O [Alizarin] | inactive: 38.6%
CCCCC(F)(F)C(=O)CC[C@H]1[C@H](O)CC(=O)[C@@H]1CCCCCCC(=O)O [Lubiprostone] | inactive: 45.4%
NNc1nncc2ccccc12 [Hydralazine] | inactive: 35.5%
C[C@H](CCC(=O)O)[C@H]1CC[C@H]2[C@@H]3[C@H](O)C[C@@H]4C[C@H](O)CC[C@]4(C)[C@H]3CC[C@]12C [Chenodeoxycholic Acid] | inactive: 38%
COc1cc(/C=C/C(=O)/C=C(O)/C=C/c2ccc(O)c(OC)c2)ccc1O | inactive: 38.1%
Cc1ccc(NC(=O)C2(c3ccc4c(c3)OC(F)(F)O4)CC2)nc1-c1cccc(C(=O)O)c1 [Lumacaftor] | inactive: 35.2%
CCCS(=O)c1ccc2[nH]c(NC(=O)OC)nc2c1 (stereo unspecified) [Albendazole Oxide] | inactive: 41.8%
Cc1c(CN2CCN(C(=O)[C@H](C)O)CC2)sc2c(N3CCOCC3)nc(-c3cnc(N)nc3)nc12 | inactive: 34.5%
COc1cc(Nc2ncc(F)c(Nc3ccc4c(n3)N(COP(=O)(O)O)C(=O)C(C)(C)O4)n2)cc(OC)c1OC [Fostamatinib] | inactive: 30.6%
CC(C)(C)Cn1c(N)nc2ccc(-c3[nH]c(C(C)(C)C)nc3-c3ccc(F)cc3)nc21 | inactive: 49.3%
CC(C)OC(=O)C1=CN(C(=O)c2ccc(F)c(F)c2)CC(C)(C)c2c1[nH]c1ccccc21 | inactive: 45.9%
Oc1cc(O)cc(/C=C/c2ccc(O)c(O)c2)c1 [Piceatannol] | inactive: 46.1%
Clc1cccc(Cl)c1NC1=NCCN1 [Clonidine] | inactive: 51.5%
CN1[C@@H]2CC[C@H]1C[C@@H](OC(=O)C(O)c1ccccc1)C2 (stereo partly specified) [Homatropine Bromide] | inactive: 40.7%
CC(=O)Oc1cccc2c1C(=O)c1c(OC(C)=O)cc(C(=O)O)cc1C2=O [Diacerin] | inactive: 41.3%
CC(C)n1nc(-c2cc3cc(O)ccc3[nH]2)c2c(N)ncnc21 | inactive: 33.7%
CCC(=O)NCC[C@@H]1CCc2ccc3c(c21)CCO3 [Ramelteon] | inactive: 56%
Cc1nc2n(c(=O)c1CCN1CCC(c3noc4cc(F)ccc34)CC1)CCCC2 [Risperidone] | inactive: 42.6%
CCc1oc2ccccc2c1C(=O)c1cc(Br)c(O)c(Br)c1 [Benzbromarone] | inactive: 50.5%
CC(=O)Nc1ccc(C(=O)Nc2ccccc2N)cc1 [Tacedinaline] | inactive: 34.9%
CN(C)CCCOc1nn(Cc2ccccc2)c2ccccc12 [Benzydamine] | inactive: 38.8%
CNCC[C@@H](Oc1ccccc1C)c1ccccc1 [Atomoxetine] | inactive: 47.9%
CC(=O)Nc1ncc([N+](=O)[O-])s1 [Nithiamide] | inactive: 45.2%

SMILES | percentage of GFP+
CN(C)CCOC(C)(c1ccccc1)c1ccccn1 (stereo unspecified) [Doxylamine] | inactive: 42.9%
COc1cc2nc(N3CCN(C(=O)C4COc5ccccc5O4)CC3)nc(N)c2cc1OC (stereo unspecified) [Doxazosin] | inactive: 44.1%
C[C@@H]1CN(CC(=O)Nc2ccc3c(c2)Cc2cccc(-c4cc(=O)cc(N5CCOCC5)o4)c2S3)C[C@H](C)O1 | inactive: 44.7%
Oc1ccc(/C=C/c2cc(O)cc(O)c2)cc1 [Resveratrol] | inactive: 42.8%
CNC(=O)c1ccc(N2C(=S)N(c3cnc(C#N)c(C(F)(F)F)c3)C(=O)C23CCC3)cc1F | inactive: 58.2%
COCCO/C(O)=C1\C(C)=NC(C)=C(C(=O)OC/C=C/c2ccccc2)C1c1cccc([N+](=O)[O-])c1 (stereo unspecified) [Cilnidipine] | inactive: 51.7%
N#C/C(=C\c1ccc(O)c(O)c1)C(=O)NCc1ccccc1 [Tyrphostin Ag 490] | inactive: 42.9%
CC(C)CN(C[C@@H](O)[C@H](Cc1ccccc1)NC(=O)O[C@H]1CCOC1)S(=O)(=O)c1ccc(N)cc1 [Amprenavir] | inactive: 43%
OC[C@H]1O[C@@H](c2ccc(Cl)c(Cc3ccc(O[C@H]4CCOC4)cc3)c2)[C@H](O)[C@@H](O)[C@@H]1O [Empagliflozin] | inactive: 43.7%
CCCCOc1ccc(C(=O)Nc2ccc(F)cc2F)cc1 | inactive: 52.6%
CNC(=O)c1cc(Oc2ccc(NC(=O)Nc3ccc(Cl)c(C(F)(F)F)c3)cc2)ccn1 [Sorafenib] | inactive: 27.2% and inactive: 30.1%
COc1c(O)cc2c(c1O)[C@@H]1O[C@H](CO)[C@@H](O)[C@H](O)[C@H]1OC2=O [Bergenin] | inactive: 42.5%
CCOC(=O)c1c(CSc2ccccc2)n(C)c2cc(Br)c(O)c(CN(C)C)c12 [Arbidol HCl] | inactive: 52.4%
C[C@]12C=CC(=O)N[C@@H]1CC[C@@H]1[C@@H]2CC[C@]2(C)[C@@H](C(=O)Nc3cc(C(F)(F)F)ccc3C(F)(F)F)CC[C@@H]12 [Dutasteride] | inactive: 33.6%
Cc1ccc(C(=O)N(CCCN)[C@@H](c2oc3cc(Cl)ccc3c(=O)c2Cc2ccccc2)C(C)C)cc1 | inactive: 38.5%
COc1cc2nc(N3CCN(C(=O)c4ccco4)CC3)nc(N)c2cc1OC [Prazosin] | inactive: 47.6%
COc1cc(CCc2cc(NC(=O)c3ccc(N4C[C@@H](C)N[C@@H](C)C4)cc3)[nH]n2)cc(OC)c1 | inactive: 38.4%
CC(C)C(=O)Nc1ccc([N+](=O)[O-])c(C(F)(F)F)c1 [Flutamide] | inactive: 38.2%
C[C@@H]1C[C@H]2[C@@H]3C[C@H](F)C4=CC(=O)C=C[C@]4(C)[C@@]3(F)[C@@H](O)C[C@]2(C)[C@@]1(O)C(=O)CO [Flumethasone] | inactive: 42.2%
O=C(c1ccc(OCCCc2c[nH]cn2)cc1)C1CC1 [Ciproxifan] | inactive: 50.4%
CC1(C)O[C@H]2CC(=O)OC[C@]23[C@H]2CC[C@@]4(C)[C@H](c5ccoc5)OC(=O)[C@H]5O[C@]54[C@]2(C)C(=O)C[C@@H]13 [Limonin] | inactive: 42.2%
N[C@@H](CC(=O)N1CCn2c(nnc2C(F)(F)F)C1)Cc1cc(F)c(F)cc1F [Sitagliptin] | inactive: 44.6%
CC(=O)SCC(Cc1ccccc1)C(=O)NCC(=O)OCc1ccccc1 (stereo unspecified) [Racecadotril] | inactive: 45%
OCCN(CCO)c1nc(N2CCCCC2)c2nc(N(CCO)CCO)nc(N3CCCCC3)c2n1 [Dipyridamole] | inactive: 42.4%

SMILES | percentage of GFP+
CN(C)c1ccc(C(=C2C=CC(=[N+](C)C)C=C2)c2ccc(N(C)C)cc2)cc1 [Gentian Violet] | inactive: 43.4%
COc1ccc(F)c(F)c1C(=O)c1cnc(NC2CCN(S(C)(=O)=O)CC2)nc1N | inactive: 24.8%
CO/C(O)=C1/C(C)=NC(C)=C(C(=O)OC(C)C)C1c1cccc2nonc12 (stereo unspecified) [Isradipine] | inactive: 34.6%
Cc1c(C(=O)Nc2ccc(N3CCC(N4CCOCC4)CC3)c(C#N)c2)cnn1-c1ccc(Cl)cc1 | inactive: 29.2%
OC(Cn1cncn1)(Cn1cncn1)c1ccc(F)cc1F [Fluconazole] | inactive: 34.2%
CCN(CC)CCNC(=O)c1c(C)[nH]c(/C=C2\C(=O)Nc3ccc(F)cc32)c1C [Sunitinib] | inactive: 30.2%
O=C(c1ccc(OCCN2CCCCC2)cc1)c1c(-c2ccc(O)cc2)sc2cc(O)ccc12 [Raloxifene] | active: 16.8%
CCN(CC)Cc1ccc2cc(COC(=O)Nc3ccc(C(=O)NO)cc3)ccc2c1 [Givinostat] | inactive: 23.2%
COc1cc(C(C)=O)ccc1OCCCN1CCC(c2noc3cc(F)ccc23)CC1 [Iloperidone] | inactive: 56.8%
CN1CCC(=C2c3ccccc3CCc3sccc32)CC1 [Pizotyline Malate] | inactive: 53.9%
NCCc1c[nH]cn1 [Histamine] | inactive: 46.4%
COc1cc2ncnc(Sc3nnc(C)s3)c2cc1OC | inactive: 50.2%
Cc1[nH]c(/C=C2\C(=O)Nc3ccc(S(=O)(=O)Cc4c(Cl)cccc4Cl)cc32)c(C)c1C(=O)N1CCC[C@@H]1CN1CCCC1 | inactive: 79%
CC[C@]1(O)C[C@@H]2CN(CCc3c([nH]c4ccccc34)[C@@](C(=O)OC)(c3cc4c(cc3OC)N(C=O)[C@@H]3C45CCN4CC=C[C@](CC)([C@H]45)[C@@H](OC(C)=O)[C@]3(O)C(=O)OC)C2)C1 (stereo partly specified) [Vincristine] | active: 16.5%
O=C(NOCC1CC1)c1ccc(F)c(F)c1Nc1ccc(I)cc1Cl | inactive: 42.2%
NC(=O)C1CCCc2c1[nH]c1ccc(Cl)cc21 (stereo unspecified) [Selisistat] | inactive: 44.8%
Nc1nc(N)c2nc(-c3cccc(O)c3)cnc2n1 | inactive: 40.8%
CN1CCN(C(c2ccccc2)c2ccccc2)CC1 [Cyclizine] | inactive: 47.5%
OC1(c2ccc(Cl)c(C(F)(F)F)c2)CCN(CCCC(c2ccc(F)cc2)c2ccc(F)cc2)CC1 [Penfluridol] | inactive: 55.9%
COc1cc2c(cc1OC)CC(=O)N(CCCN(C)C[C@H]1Cc3cc(OC)c(OC)cc31)CC2 [Ivabradine] | inactive: 38.8%
CCCCOc1c(C(=O)c2c(F)cc(C)cc2F)cnc2[nH]ncc12 | inactive: 30.9%
FC(F)c1nc2ccccc2n1-c1nc(N2CCOCC2)nc(N2CCOCC2)n1 | inactive: 30.8%
C[C@]1(O)C[C@@H](c2nc(-c3ccc4ccc(-c5ccccc5)nc4c3)c3c(N)nccn32)C1 [Linsitinib] | inactive: 46.4%
